Measured values: PubChem BioAssay AID1671193 (National Center for Advancing Translational Sciences (NCATS), 2021)
Where “and” joins values, the source holds several entries; their conditions need not be identical. Equal entries are not always repeated. The whole screen tested about 150,000 compounds, of which about 180 (0.12%) were called active. This list was built around the results that the source calls inconclusive (neither active nor inactive); the mix of calls is not that of the screen. Calls come from the whole dose curve; as a rule, active = well fitted cell-killing curve with a large enough effect; inconclusive = small, poorly fitted or top-dose-only effect, or effect the other way; inactive = flat fitted curve, though single readings scatter. Potencies of inconclusive entries are doubtful fits and often do not repeat.

test: GF-AFC viability counterscreen for inhibitors of alpha-synuclein gene (SNCA) expression; conditions: HEK-293-SNCA-luc viability, GF-AFC fluorescence, 24 h; activity change, negative = cytotoxicity: at 57.1 µM (top of the series) unless noted; note: nearly all actives have a fitted effect of over 30% in size;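 for activity change, negative = cytotoxicity: 0% = DMSO-treated cells and -100% = medium-only wells without cells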
Method in brief: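 HEK-293-SNCA-luc cells (1500/well) plated 24 h, then exposed 24 h to a dilution series; GF-AFC added 30 min at 37C, fluorescence 405/540 nm; normalised to medium-only and DMSO wells, Hill fit.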
Potency is the fitted concentration of half-maximal effect; tags give direction and shape of the fitted curve.

SMILES | Potency | activity change, negative = cytotoxicity
CCc1ccc(NCc2cc3ccc(OC)cc3n(CC(=O)Nc3ccc(C(C)C)cc3)c2=O)cc1 | inconclusive: 0.224 µM [rising, full curve, poor fit] | –
Nc1ncnc2c1ncn2[C@H]1CCCO1 | inconclusive: 0.752 µM [cytotoxic, full curve, poor fit] | –
COc1ccc(-n2c(=O)c3c(C)c(C)sc3n(CC(=O)NCc3ccc(C)cc3)c2=O)c(OC)c1 | inconclusive: 5.62 µM [cytotoxic, full curve, poor fit] | –
COc1cccc(Cn2c(=O)cnc3cncnc32)c1 | inconclusive: 22.4 µM [cytotoxic, partial curve, poor fit] | –
Cc1ccc(C)c(NC(=O)Cn2nnc(C(=O)NCCc3ccccc3)c2N)c1 | inconclusive: 39.8 µM [cytotoxic, single point] | –
CCC(C)NC(=O)N1CC(Oc2ccccc2-c2nc(-c3ccccc3)no2)C1 (stereo not drawn) | inconclusive: 39.8 µM [cytotoxic, single point] | –
COc1ccc(C(=O)N2CCCC2)c(OC2CCN(C(=O)C3C=CCN3)CC2)c1 (stereo not drawn) | inconclusive: 17.8 µM [cytotoxic, partial curve, poor fit] | –
C(#Cc1nc2ncccc2nc1OCCN1CCCC1)c1ccccc1 | active: 15 µM | –
Cc1cc(C(=O)NC2CCN(c3ccnc4ccnn34)CC2)ccc1Cl | inactive | –
CCOc1ccccc1CNC(=O)CN1C(=O)CSc2ccc(S(=O)(=O)N3CCOCC3)cc21 | inconclusive: 28.2 µM [cytotoxic, single point] | –
Cc1ccc(C(=O)N2CCC(N3C(=O)CCC3C(=O)NCc3ccccc3)CC2)cc1 (stereo not drawn) | inactive | –
COc1ccc(CN2CC(CN[S+](=O)([O-])c3ccccc3)C3(C2)CN(c2ccccc2)C3)cc1O (stereo not drawn) | inactive | –
O=c1[nH]nc(Sc2ncc([N+](=O)[O-])s2)n1-c1ccc2c(c1)OCCO2 | active: 24.1 µM | –
CN(Cc1ccccn1)C(=O)CC(c1cccc(O)c1)c1ccccc1Cl (stereo not drawn) | inconclusive: 12.6 µM [cytotoxic, partial curve, poor fit] | –
O=C(NCc1cccc(Cl)c1)c1cc(-c2cccc(C(F)(F)F)c2)c2nncn2n1 | inconclusive: 5.01 µM [cytotoxic, single point] | –
CC(C)[C@@H](CS(=O)(=O)C(C)C)N1C(=O)[C@@](C)(CC(=O)O)C[C@H](c2cccc(Cl)c2)[C@H]1c1ccc(Cl)cc1 | inconclusive: 6.7 µM [cytotoxic, full curve, poor fit] and inconclusive: 19.1 µM [cytotoxic, partial curve] | –
CN1Cc2ccc(NCc3ccccc3)nc2C(C)(C(=O)NCc2cccnc2)C1 (stereo not drawn) | inactive | –
Cc1cc(OCCN2CCOCC2)c(C)c2c1CC[C@@H]([C@H](C)C(=O)N1CCCCC1)C2 | inconclusive: 17.8 µM [cytotoxic, partial curve] | –
O=C(CSC1=Nc2ccccc2C2=NC(Cc3ccccc3)C(=O)N12)Nc1cccc(Cl)c1 (stereo not drawn) | inconclusive: 15.8 µM [cytotoxic, partial curve, poor fit] | –
COc1ccccc1Cn1c(C2CC(=O)N(c3ccccc3OC)C2)nc2ccccc21 (stereo not drawn) | inconclusive: 17.8 µM [cytotoxic, partial curve, poor fit] | –
O=C(O)CCC(=O)N1CCc2cc(S(=O)(=O)NCc3ccc(F)cc3)ccc21 | inconclusive: 12.6 µM [rising, partial curve, poor fit] | –

SMILES | Potency | activity change, negative = cytotoxicity
CC(=O)Nc1ccc(CC(=O)N2CCc3c(nc4cc(-c5ccccc5)[nH]n4c3=O)C2)cc1 | inactive | –
CCOC(=O)C1CCN(C(=O)C2CCN(S(=O)(=O)c3c(C)noc3/C=C/c3ccc(C)cc3)CC2)CC1 | inconclusive: 22.4 µM [cytotoxic, partial curve] | –
COc1ccc(CN2CCCC3(C2)C(=NC2CCCCC2)NC(=O)N3c2cc(F)cc(F)c2)cc1 (stereo not drawn) | inconclusive: 39.8 µM [cytotoxic, single point] | –
CC(C)N1CC[C@H](c2nc3ccc(C(F)(F)F)cc3[nH]2)C1 | inactive | –
CCOCCc1nn2c(=O)cc(COC(=O)c3ccc(NC(=O)c4cccs4)cc3)nc2s1 | inconclusive: 1.41 µM [rising, full curve, poor fit] | –
CCc1oc2ccccc2c1C(=O)c1cc(Br)c(O)c(Br)c1 | inconclusive: 10 µM [rising, partial curve, poor fit] | –
COc1ccccc1-c1ccc2c(C(=O)NCCc3ccc(F)cc3)nn(C)c2n1 | inactive | –
COC(=O)[C@@H]1Cc2ncn(Cc3ccccc3)c2CN1C(=O)CC(C)(C)C | inactive | –
O=C(Cc1ccsc1)N1CC(Oc2ccccc2-c2nc(C3CC3)no2)C1 | inactive | –
COc1ccc(CC(=O)N2CCc3c([nH]c4ccccc34)C2c2ccc(SC)cc2)cc1 (stereo not drawn) | inactive | –
O=c1c2c3c(nn2ccn1Cc1cc(F)cc(F)c1)CCCC3 | inactive | –
COC1CCCN(c2ncccc2-c2cc(-c3ccccc3)nc3c(C)noc23)C1 (stereo not drawn) | inconclusive: 35.5 µM [rising, single point] | –
COc1ccc(-c2cn3cc(C(=O)N4CCCCC4)nc3s2)cc1 | inconclusive: 3.98 µM [rising, single point] | –
C=Cc1ccc(CSc2nc(-c3ccccc3C)nc3c2Cc2c(CO)cnc(C)c2O3)cc1 | inconclusive: 39.8 µM [cytotoxic, single point] | –
CCNC(=O)N1CC2CC(C1)[C@H]1CCCC(=O)N1C2 (stereo partly drawn) | inconclusive: 8.91 µM [rising, full curve, poor fit] | –
CN(C)CCCCC(=O)Nc1ccc(NC(=S)NC(=O)c2ccc(C(C)(C)C)cc2)cc1 | inconclusive: 26.7 µM [cytotoxic, single point] | –
Cc1nc2ccn(Cc3cccnc3)c(=O)c2cc1C(=O)NCc1ccc(Cl)cc1 | inconclusive: 0.891 µM [cytotoxic, full curve, poor fit] | –
CN(Cc1ccccc1)C(=O)[C@H]1CN(Cc2ccccc2)C[C@H]1C(=O)O | inactive | –
O=C(NCc1ccc(F)cc1)c1ccnc(-c2nnc3ccc(Nc4ccccc4)nn23)c1 | inconclusive: 39.8 µM [cytotoxic, single point] | –
O=C1NCCCCCCN(C(=O)Nc2ccc3c(c2)OCCO3)[C@H]2CCCC[C@@H]12 | inconclusive: 0.708 µM [cytotoxic, full curve, poor fit] | –
COc1ccc(-c2ccc3ncc(Nc4cc(F)cc(N5CCOCC5)c4)n3n2)cc1OC | inconclusive: 11.2 µM [cytotoxic, partial curve] | –

SMILES | Potency | activity change, negative = cytotoxicity
COc1ccc(CCNc2ncnc3c2c(-c2ccccc2)cn3-c2cccc(Cl)c2)cc1OC | inconclusive: 39.8 µM [cytotoxic, single point] | –
COc1ccc(C(=O)NCC(c2ccc(N(C)C)cc2)N2CCOCC2)cc1 (stereo not drawn) | inconclusive: 14.1 µM [cytotoxic, single point] | –
COc1cc(CNC(=O)c2cc(-c3ccc(Cl)cc3Cl)nc3c2cnn3C)cc(OC)c1 | inconclusive: 7.94 µM [cytotoxic, full curve] | –
Cc1ccc(CN2CCC(Cn3c(C)cnc3-c3cccnc3)CC2)s1 | inactive | –
COc1ccc(Oc2ncc3nc(-c4cccs4)c(=O)n(Cc4cccs4)c3n2)cc1 | inconclusive: 17.8 µM [rising, single point] | –
COc1ccccc1CNC(=O)C1CCN(Cc2ccccc2-c2cccnc2)CC1 | inconclusive: 3.16 µM [cytotoxic, single point] | –
CCO[C@H]1CN(C(=O)C2(c3ccc(OC)c(OC)c3)CCCC2)C[C@@H]1O | inactive | –
COc1ccc(C(=O)N2CCC3(CC2)CC(c2nc(C)no2)N(C)C3)cc1 (stereo not drawn) | inactive | –
O=C(CSc1nc2ccccc2nc1Cc1ccc(Cl)cc1)N1CCCCC1 | inconclusive: 28.2 µM [cytotoxic, single point] | –
O=[S+]([O-])(NC1CCN(Cc2cccc(-c3cccs3)c2)CC1)c1cccc(C(F)(F)F)c1 | inconclusive: 7.08 µM [cytotoxic, single point] | –
O=C(c1ccc2c(c1)N(Cc1ccccc1Cl)C(=O)c1ccccc1S2)N1CCCC1 | inconclusive: 20 µM [cytotoxic, partial curve, poor fit] | –
CCc1ccccc1-n1c(SCC(=O)Nc2ccc(C)cc2)nc2n[nH]c(C)c2c1=N | inconclusive: 39.8 µM [cytotoxic, single point] | –
CC(C)(C)NCC(O)c1cc(O)cc(O)c1 (stereo not drawn) | – | inconclusive: 87% [at 23.9 µM]
Cc1cc(NC(=O)c2oc3c(c2C)-c2[nH]ncc2CC3)ccc1Br | inconclusive: 1.58 µM [rising, partial curve, poor fit] | –
Cc1cc(C)cc(-c2ccc(CN3CCCC(NC(=O)NC4CCCC4)C3)cc2)c1 (stereo not drawn) | inactive | –
O=C(CC1NCCNC1=O)Nc1ccc(F)c(Cl)c1 (stereo not drawn) | inconclusive: 22.4 µM [rising, single point] | –
Cn1cc(CN[C@H]2[C@H](O)[C@H](O)C[C@@H]2c2ccc(N3CCOCC3)nc2)cn1 | inactive | –
Cc1ccccc1OC(=O)c1nc(SCc2ccccc2F)ncc1Cl | inconclusive: 0.251 µM [rising, full curve, poor fit] | –
COc1ccc(C)cc1NC(=O)c1cnc(-c2ccc(F)cc2)nc1-c1ccncc1 | inconclusive: 39.8 µM [cytotoxic, partial curve, poor fit] | –
COc1cc(NC(=O)Cn2c(-c3ccc(F)cc3)nc(C)c(CCO)c2=O)cc(OC)c1OC | inconclusive: 3.55 µM [cytotoxic, full curve, poor fit] | –
CC1CCc2nn3ccn(CC(=O)Nc4cccc(Cl)c4)c(=O)c3c2C1 (stereo not drawn) | inconclusive: 28.2 µM [cytotoxic, single point] | –
